# Values joined by “and” are separate entries in the source; they are usually repeats but may differ in a detail not shown here. Identical values can stand only once. The whole screen tested about 220,000 compounds, of which about 5,700 (2.6%) were called active. This list was built around the results that the source calls inconclusive (neither active nor inactive); the mix of calls is not that of the screen. Calls come from the whole dose curve; as a rule, active = well fitted inhibition curve with a large enough effect; inconclusive = small, poorly fitted or top-dose-only effect; inactive = no such curve, though single readings can be large or run the other way. Potencies beside an inconclusive call are fits to weak or partial responses and may not hold up.
# Biological target: Lysine-specific demethylase 5B (Homo sapiens) (UniProt Q9UGL1)
# Sequence of UniProt Q9UGL1 (Q9UGL1 whole entry, looked up): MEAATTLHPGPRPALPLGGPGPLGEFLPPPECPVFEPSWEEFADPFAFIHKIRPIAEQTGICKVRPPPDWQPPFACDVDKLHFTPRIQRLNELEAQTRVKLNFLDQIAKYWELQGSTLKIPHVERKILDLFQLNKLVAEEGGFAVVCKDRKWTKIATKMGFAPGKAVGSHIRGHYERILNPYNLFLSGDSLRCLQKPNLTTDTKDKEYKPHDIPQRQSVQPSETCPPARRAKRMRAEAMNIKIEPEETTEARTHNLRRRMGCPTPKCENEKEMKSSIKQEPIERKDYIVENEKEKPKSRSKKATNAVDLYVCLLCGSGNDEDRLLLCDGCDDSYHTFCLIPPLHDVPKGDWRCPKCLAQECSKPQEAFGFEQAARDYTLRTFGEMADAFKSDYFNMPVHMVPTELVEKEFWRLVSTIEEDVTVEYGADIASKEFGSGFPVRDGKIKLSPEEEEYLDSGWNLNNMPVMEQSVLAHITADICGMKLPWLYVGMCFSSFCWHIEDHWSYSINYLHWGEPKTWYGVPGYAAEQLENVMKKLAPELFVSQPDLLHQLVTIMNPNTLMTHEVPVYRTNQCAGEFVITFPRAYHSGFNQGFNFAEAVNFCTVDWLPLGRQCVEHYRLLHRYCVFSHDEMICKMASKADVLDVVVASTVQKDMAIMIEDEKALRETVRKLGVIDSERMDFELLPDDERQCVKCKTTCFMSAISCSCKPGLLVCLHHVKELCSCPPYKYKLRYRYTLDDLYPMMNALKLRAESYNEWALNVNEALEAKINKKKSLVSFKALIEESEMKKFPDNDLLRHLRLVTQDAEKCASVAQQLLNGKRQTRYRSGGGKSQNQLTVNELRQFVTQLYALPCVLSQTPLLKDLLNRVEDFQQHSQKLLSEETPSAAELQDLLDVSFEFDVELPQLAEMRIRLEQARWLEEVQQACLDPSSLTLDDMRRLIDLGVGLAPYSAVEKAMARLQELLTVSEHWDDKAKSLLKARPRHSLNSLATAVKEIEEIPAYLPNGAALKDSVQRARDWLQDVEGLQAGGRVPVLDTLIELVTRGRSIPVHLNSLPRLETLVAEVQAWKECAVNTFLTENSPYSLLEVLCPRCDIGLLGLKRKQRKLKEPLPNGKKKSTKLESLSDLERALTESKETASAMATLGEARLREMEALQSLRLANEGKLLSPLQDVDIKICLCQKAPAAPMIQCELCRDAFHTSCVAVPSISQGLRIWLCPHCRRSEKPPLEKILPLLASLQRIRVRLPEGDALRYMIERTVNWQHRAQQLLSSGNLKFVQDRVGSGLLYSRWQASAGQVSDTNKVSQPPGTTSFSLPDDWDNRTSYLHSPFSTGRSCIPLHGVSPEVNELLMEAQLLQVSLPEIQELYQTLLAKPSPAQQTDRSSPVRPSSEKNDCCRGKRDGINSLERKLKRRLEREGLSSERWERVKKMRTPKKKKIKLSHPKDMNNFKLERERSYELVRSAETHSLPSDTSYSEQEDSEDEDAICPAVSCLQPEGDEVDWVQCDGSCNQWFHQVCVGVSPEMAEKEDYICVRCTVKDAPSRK
# Assay: Primary screen for KDM5B Histone Demethylases FDH-coupled qHTS; note: nearly all actives have a fitted effect of over 70% in size; for activity change, negative = inhibition: 0% is about no effect
# Details: FDH-coupled NADH fluorescence (FDH is formaldehyde dehydrogenase); activity change, negative = inhibition: at 57.7 µM (top of the series) unless noted
# Procedure, shortened: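 Coupled FDH/NAD⁺ fluorescence readout. KDM5BΔAP 200 nM final; compound titration, 10 min RT preincubation; substrate mix 12.5 µM H3K4me3, 25 µM 2-OG, 50 µM Fe(II), 100 µM ascorbate, 0.25 mM NAD⁺, 0.25 U/mL FDH; ΔRFU over 30 min.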
# Potency is the fitted concentration of half-maximal effect; tags give direction and shape of the fitted curve.
Compound,Potency,"activity change, negative = inhibition"
CCCn1c(=O)[nH]c(=O)c2c1nc(-c1ccccn1)n2CCOC,"inconclusive: 10 µM [inhibitor, partial curve, poor fit]",–
COc1cc(Cl)c(C)cc1NC(=O)CSc1nnc(C)n1-c1ccccc1,inactive,–
Cc1ccc(NC(=O)CC2Nc3cccc4cccc(c34)NC2=O)cc1 (configuration not stated),"inconclusive: 15.8 µM [inhibitor, partial curve, poor fit]",–
COc1ccc(N(Cc2ccccc2)C(=O)c2nc(SC)ncc2Cl)cc1,"inconclusive: 28.2 µM [inhibitor, partial curve, poor fit]",–
CC1=C(C(=O)OC(C)C)C(c2ccccc2Cl)N2C(CC(=O)NCC3CC3)=CSC2=N1 (configuration not stated),inactive,–
O=C1CC(c2ccc(F)cc2)c2cc(Br)c3ccccc3c2N1 (configuration not stated),"inconclusive: 14.1 µM [inhibitor, partial curve, poor fit]",–
Cc1noc([C@@H](C)NC(=O)c2nc3ccccc3[nH]2)c1C(=O)O,"inconclusive: 31.6 µM [inhibitor, partial curve]",–
COc1cccc(Cn2c(=O)n(-c3ccc(Br)cc3F)c(=O)c3sc4ccccc4c32)c1,"inconclusive: 7.08 µM [inhibitor, partial curve, poor fit]",–
Cc1cc2cc(-c3c(C)noc3C)nc(Nc3ccc(F)cc3)c2o1,active: 31.6 µM,–
CCCCNC1C2CC3CC(C2)CC1C3 (configuration not stated),inactive,–
COC(=O)CNC(=O)c1nc(-c2ccccc2OC)c2cnccn12,active: 100 µM,–
COc1ccc(-c2noc(N3CCC(C(=O)Nc4ccc(C)c(F)c4)CC3)n2)cc1OC,"inconclusive: 28.2 µM [inhibitor, single point]",–
COc1ccc(CNC(=O)c2cccc(NC(=O)N3CCSc4ncccc43)c2)cc1,"inconclusive: 2.51 µM [inhibitor, partial curve, poor fit]",–
CC(C)CCN1CCC(N2CCN(S(=O)(=O)C(C)C)CC2)C1=O (configuration not stated),inactive,–
Cn1nc(C(=O)NC2CCCc3ccccc32)c2ccccc2c1=O (configuration not stated),inactive,–
COc1ccc(-c2nc(C(=O)N3CCN(C(C#N)c4ccc(F)cc4)CC3)cs2)cc1OC (configuration not stated),inactive,–
COc1ccc(Cn2c(SCc3ccc(C(=O)NCc4ccccc4F)cc3)nc3cccnc32)cc1,"inconclusive: 25.1 µM [inhibitor, partial curve, poor fit]",–
CCNC(=O)NC(=O)CN(C)c1ccccc1F,inactive,–
COc1ccc(CCN2C(=O)CN(C3CCCCCC3)C(=O)C2c2ccccc2F)cc1OC (configuration not stated),inactive,–
CN(CCOc1ccccc1)C(=O)C1CCN(C(=O)c2ccc(F)cc2)CC1,inactive,–
COc1nc2nc(CCc3ccccc3)n(C)c2cc1-c1cccc(CO)c1,active: 35.5 µM,–

Compound,Potency,"activity change, negative = inhibition"
C[C@@H]1CN(C(=O)c2cnc3sccn3c2=O)C[C@@]1(O)C1CCC1,"inconclusive: 22.4 µM [inhibitor, partial curve]",–
COc1ccc(NC(=O)CN(C)S(=O)(=O)c2ccc3[nH]c4c(c3c2)CCCC4)cc1Cl,"inconclusive: 25.1 µM [inhibitor, partial curve, poor fit]",–
CCCNC(=O)c1cc(C)nc2ccc(C)cc12,"inconclusive: 22.4 µM [inhibitor, partial curve, poor fit]",–
S=C(NCc1ccc(Cl)cc1)Nc1ccc2ccccc2c1,inactive,–
CCc1ccc(S(=O)(=O)c2nnn3c2nc(NC2CCCC2)c2sccc23)cc1,"inconclusive: 2.51 µM [inhibitor, partial curve, poor fit]",–
COc1ccccc1CN1CCN(C(=O)c2ccc3c(c2)C(O)CCCCCN3C)CC1 (configuration not stated),"inconclusive: 25.1 µM [inhibitor, partial curve, poor fit]",–
COCCNC(=O)c1cc(Sc2ccc(F)cc2F)nc2ccccc12,–,inconclusive: -33.7% [inhibitor]
CC1=C[C@@H](CNC(=O)COc2ccccc2)[C@H](C(C)C)C[C@H]1CC(=O)NCCN1CCOCC1,"inconclusive: 39.8 µM [inhibitor, single point]",–
CN1c2cc(C(N)=O)ccc2C(=O)N2CCCC21 (configuration not stated),"inconclusive: 25.1 µM [inhibitor, partial curve, poor fit]",–
CCn1cc(CNC(=O)c2cc(-c3ccc(C)cc3)nc3c(C)cccc23)cn1,"inconclusive: 35.5 µM [inhibitor, single point]",–
O=C(NCc1cccc(C(F)(F)F)c1)C1CCN(C(=O)/C=C/c2ccccc2)CC1,inactive,–
CCN1c2cc(C(=O)Nc3ccc(Cl)c(F)c3)ccc2C(=O)N2CCCCCC21 (configuration not stated),"inconclusive: 35.5 µM [inhibitor, partial curve, poor fit]",–
N#Cc1ccsc1NC(=O)CN1C(=O)NC2(CCCCC2)C1=O,"inconclusive: 20 µM [inhibitor, single point]",–
Cc1cccc(/C=C(/C(=O)NC2CC2)c2cccs2)c1,inactive,–
COc1ncccc1-c1cc(-c2ccncc2)c2cncn2c1,"inconclusive: 28.2 µM [inhibitor, single point]",–
COc1ccc2cc(CNc3ccc(OC)c(OC)c3)c(=O)n(CC(=O)Nc3ccc(C)cc3)c2c1,"inconclusive: 6.31 µM [inhibitor, partial curve, poor fit]",–
COC(=O)[C@@H]1Cc2nc[nH]c2CN1Cc1ccc(OC)c2ccccc12,active: 31.6 µM,–
Cc1ccccc1-c1cnc2[nH]cc(CC(=O)Nc3ccccn3)c2c1,"inconclusive: 31.6 µM [inhibitor, single point]",–
Cc1ccc(-c2cccc(CN3CCCC(c4nc5ccc(F)cc5c(=O)[nH]4)C3)c2)c(C)c1 (configuration not stated),"inconclusive: 56.2 µM [inhibitor, partial curve, poor fit] and inconclusive: 25.1 µM [inhibitor, single point]",–
CCCOc1cccc(C(=O)Nc2ccc(-c3nc4ccccc4o3)cc2)c1,"inconclusive: 3.55 µM [inhibitor, full curve, poor fit]",–
CCC(=O)N1CCCN(Cc2ccc3c(c2)OCO3)c2ccccc21,"inconclusive: 14.1 µM [inhibitor, partial curve]",–
